± gives the standard deviation of the averaged measurements. Some of the results follow.
system: PfAP2-EXP AP2 domain (GST-tagged); assay: gcPBM binding intensity (ln(normalized median fluorescence intensity)); higher = stronger DNA binding
Summary of the method: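 Using an Agilent 4 × 180k array, primer-extended double-stranded 36-bp intergenic genomic probes and negative controls were exposed for 1 h to GST-fused P. falciparum DNA-binding domains expressed in E. coli. Binding was carried out in 1× PBS with 1% milk, 0.2 mg/ml BSA, 0.5% salmon testes DNA and 0.03% Triton X-100, and protein was detected with Alexa488 anti-GST antibody and a 488 nm scan. Binding intensity is the highest Masliner-normalised natural-log median intensity across replicate spots of either probe orientation.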

Row | Sequence | gcPBM binding intensity (ln)
1 | TTCTTTTAAAAATATATTTTAAGAAAATTTAATTTA [GTGCAC_negctrl_site237] | 7.98 ± 0.4
2 | TTTATTTTTTGAAACACACACAAAAAAAATGATACA [CACACA_site1881] | 8.76 ± 0.49
3 | ATAAAGCACACCGACACACACATATATATATATATA [CACACA_site1047] | 10.1 ± 0.46
4 | AAAAAAAAAATATATATATATATATATATATATATA [GTGCAC_negctrl_site467] | 9.95 ± 0.53
5 | CAAAAAAAAAAACGGGTGCTAAATTTTATTTTTTAT | 8.57 ± 0.33
6 | TATCATGGTTCGGATTGTACATATATGAATTTTTTT [XGTACX_site7478] | 8.55 ± 0.44
7 | TATACAATATTTATAACACACATATTTATATAAACT [CACACA_site6932] | 8.39 ± 0.35
8 | ACTAAACAATATGTATGTACATATTTTACATATAAT [XGTACX_site3318] | 8.54 ± 0.27
9 | AGAACATTTTCTCAGTGTACTTATATATTTGACATA [XGTACX_site6541] | 8.62 ± 0.32
10 | ATATATCATGAACCTTGTACGTATATATATATATAT [XGTACX_site239] | 10.2 ± 0.23
11 | ACTTCCTATATTTATGCATGCATTTTATTAAAAAAT [TGCATGCA_site747] | 9.92 ± 0.16
12 | ATTTATTTATTTATATGTACATATATATATATATAT [XGTACX_site339] | 10.1 ± 0.3
13 | GATGGAATCTAATTTACATGCAGTGATATAATAAAT [TGCATGCA_site1031] | 9.12 ± 0.27
14 | TAATAATAACCGTTATGTACACAATTTTGTGAACAT [XGTACX_site8053] | 8.35 ± 0.18
15 | TACAGACAGAAACACACACACACGCATAAAAAAAAA [CACACA_site1514] | 8.7 ± 0.52
16 | GTTAAGTGTATATATACACACATATGTAATACATGA [CACACA_site3048] | 8.92 ± 0.42
17 | AATATTGAAATAACGCGTACAAAAAAAAGTTATATT [XGTACX_site6559] | 8.84 ± 0.63
18 | TAAAAATATATGTATACACACATATATATATATATA [CACACA_site3951] | 10.1 ± 0.43
19 | AAAAAAAGTGACTCCTTACACACTTTACATAATTTA [CACACA_site820] | 8.34 ± 0.45
20 | ATATGTAGAATAAAAAAAAAAAAAAAAAAAAAAAAT [CACACA_negctrl_site621] | 8.16 ± 0.47
21 | TAATTAAAATTATATATTAGAAAAAACATATAAAAC [CACACA_negctrl_site190] | 8.6 ± 0.42
22 | ATGTTATATTATAAAAGTACATTTTATTTTTATTTA [XGTACX_site4365] | 8.65 ± 0.45
23 | TTAATTTATAAAAACACACACAGGTAAAAAGGTGCA [CACACA_site1177] | 9.2 ± 0.15

Row | Sequence | gcPBM binding intensity (ln)
24 | ATTTCCTTTTTCTGTTGTACTCATAAAATAATATGT [XGTACX_site7234] | 9.11 ± 0.43
25 | TAACAAAAAGCACTTAGTACATATATATATATATAT [XGTACX_site1099] | 10.1 ± 0.49
26 | AATATAACTTTTTGCACACTTAATTTTTTTTTTTAA [CACACA_site3365] | 8.79 ± 0.3
27 | AGGTAATATACTAAATGTACAGAAAAACGAATTTTT [XGTACX_site2977] | 8.59 ± 0.37
28 | TTTCTTTTTAAATATATACACACCGGGTGTACATAT [CACACA_site3345] | 8.47 ± 0.33
29 | TATATTTATTATAACACACACATATTTATATTATAG [CACACA_site6628] | 8.33 ± 0.42
30 | AATGAAATAATACAATGTACGTTAAAAAAAAATAAA [XGTACX_site7928] | 8.74 ± 0.47
31 | GTATTATTTTATGATGCATGTGTATTTCATATATGC [TGCATGCA_site660] | 8.66 ± 0.26
32 | TAATATCAAACCTATAGTACATAAGGTATAAAAAAG [XGTACX_site3533] | 8.64 ± 0.42
33 | TTTTTTTTTCCTTCTTGTACATATTATATATACATA [XGTACX_site5988] | 8.84 ± 0.43
34 | TGGAACGTAATAAAATGTACATACGTTTTTCATATG [XGTACX_site6229] | 8.61 ± 0.45
35 | GACAAATTAATCGATTGTACACAATTTGTTTCGTTG [XGTACX_site35] | 8.82 ± 0.44
36 | AACACATACATATATGCACACATTTTATTCCATTAT [CACACA_site2834] | 9.04 ± 0.4
37 | TTTTTTTTTTTTTGTACATGCAAATATTATGAACAC [TGCATGCA_site571] | 8.77 ± 0.17
38 | TTCACATATATATAACGTACATTATTATTATTCTGA [XGTACX_site6006] | 8.53 ± 0.36
39 | TTAGAAGGGATTAAAGTGCAAAATAGGATTAGAGTA | 9.14 ± 0.33
40 | TACAAGTATAAATAAGCACACATGTGTATATGTACA [CACACA_site7911] | 8.89 ± 0.37
41 | TCTTATTTAATTAAACAAAAGAAAAAGAAAGAAAAG [CACACA_negctrl_site1569] | 8.57 ± 0.61
42 | TTTTTTTTTTTTTTAACACACATATAAATATTTTTC [CACACA_site6985] | 8.38 ± 0.51
43 | AAATGGAGTTAATATTGTACATATATATATATATAT [XGTACX_site5452] | 10.3 ± 0.18
44 | TGCATTTTACTTGTTACACACATATAAAATTAACCA [CACACA_site7387] | 8.64 ± 0.3
45 | ATTCTTGTTATATAAGGTACAGAACAAAATATAAAA [XGTACX_site5510] | 8.72 ± 0.38
46 | TTTGGGATAAAACAAAGTACTAACAAAATATATAAT [XGTACX_site8240] | 8.85 ± 0.47

Row | Sequence | gcPBM binding intensity (ln)
47 | AAAGTTTTAAGAAAATGTACATAAGTATACATATAT [XGTACX_site1293] | 8.68 ± 0.41
48 | TTTTTCTATTCCATTCAACACACAAAAATGTATGCT [CACACA_site8268] | 8.59 ± 0.38
49 | TTTTCATATATTTATTGTACATATTACATATATAAT [XGTACX_site2425] | 8.71 ± 0.23
50 | TTTTATAAATATTTTTGTACACATTTAAATATTATT [XGTACX_site4973] | 8.63 ± 0.45
51 | TTTTTTTAATAAAAGTGTACCAAATTATATACACAT [XGTACX_site6811] | 8.37 ± 0.42
52 | AGAGAGAACGGTATAACATGCAATAAATTTCAGAAG [TGCATGCA_site423] | 9.14 ± 0.38
53 | ATTTATAAATCAAAGTGTACATATGTTTTATTTTTT [XGTACX_site804] | 8.85 ± 0.32
54 | ATCGGTAATATTAACACACACATTTATTTATATTTA [CACACA_site6638] | 8.7 ± 0.49
55 | TTTTATTATATGGAGGTGCATATATAATAATATAAT [GTGCAC_site9477] | 8.87 ± 0.16
56 | ATGTATGTAATAAAAAGTACATATGTTCATAATAAA [XGTACX_site842] | 8.49 ± 0.13
57 | TTCTTTTTAAATATACTAATTATGTATAAAACAGAA [GTGCAC_negctrl_site131] | 8.23 ± 0.29
58 | CAAATAAAAATAAGGAGTACAATTAAAAAAGGAAGG [XGTACX_site4366] | 8.96 ± 0.39
59 | GAAAAGAAAAATAAACGTACATAAATATTAACATTA [XGTACX_site8213] | 8.46 ± 0.33
60 | AAAATAAAAAAGTGTACACATATTAAAATGTATTTA [CACACA_site4424] | 8.63 ± 0.26
61 | AATATATTTTAATATACACACATATCTGCTCTTTAA [CACACA_site6130] | 8.27 ± 0.38
62 | TCATTGTTAAGCTGAAGTACTTATAATTACATCGAG [XGTACX_site6340] | 8.63 ± 0.27
63 | TAAAATTATATAAAGGAACACACATTTTATTTTATT [CACACA_site8423] | 8.51 ± 0.23
64 | TGTCAATCATATAAATGTACATTTTAAATGAGGTGT [XGTACX_site7391] | 8.81 ± 0.4
65 | TATTAGCATGTTATTACACACAATATAAAATATATA [CACACA_site1401] | 8.37 ± 0.33
66 | AAATTATGAACATATTGTACATATATATATATATAT [XGTACX_site8269] | 10.1 ± 0.45
67 | AATTAAATTACTTATACACACATAAAATGTCTGTAT [CACACA_site997] | 8.29 ± 0.46
68 | CATGTATGTACCATGGTGCAACAATATTTTTAACAA [GTGCAC_site9597] | 8.88 ± 0.31
69 | ATTATATAAATTATATGTACGTATTTTTTTTTTTTT [XGTACX_site1908] | 8.5 ± 0.37

Row | Sequence | gcPBM binding intensity (ln)
70 | TTTATTTCTATATTTACATGCAAAGGGTTAGTTATA [TGCATGCA_site983] | 8.68 ± 0.3
71 | AAGAAAAAGAATAGACGGACAACTAATATAAAATAT [XGTACX_site7905] | 9.04 ± 0.29
72 | GATCTTTTTTTTCTTACTTTACAATTTTTTTTTTAC [XGTACX_negctrl_site101] | 8.83 ± 0.55
73 | TTTTTTTTTTTCATGTGTACATATATTTTCACTTTA [XGTACX_site4475] | 8.79 ± 0.4
74 | GTTTTACACAGACATGCATGTGAAAATTTGATGGTA [TGCATGCA_site308] | 9.23 ± 0.29
75 | TATCATCATGTATGTACACACATACCTATATTATGT [CACACA_site6768] | 8.77 ± 0.25
76 | TGTATAAAACATGGGTGTACTGAACTCAATCATATA [XGTACX_site1215] | 8.6 ± 0.29
77 | AAAATAACAAAATAAAGTACTTTTAAAAGATATAAT [XGTACX_site7632] | 8.85 ± 0.35
78 | AAAAGTAACAAAGCTACACACATTTAAATAAACATA [CACACA_site1421] | 8.48 ± 0.35
79 | TTTTTAATTCAAACAATAATATGTTATATTTCAAAT [TGCATGCA_negctrl_site27] | 8.04 ± 0.45
80 | GATTTTCTAATTTCTACACACATATAAGAATATTCA [CACACA_site7340] | 8.52 ± 0.4
81 | TATACTCATTTTTATACACACTTGTTTTATAAAACG [CACACA_site4561] | 8.67 ± 0.47
82 | ATATATATATATATATGTACATATGTATGTGTTTGT [XGTACX_site397] | 9.93 ± 0.42
83 | CTATATGTATAAAGTTGTACAGTTTTTCAAAGTTAA [XGTACX_site6652] | 8.36 ± 0.35
84 | AAATTTATTATGAACATACACACAAAAAAAAAAAGT [CACACA_site2053] | 8.82 ± 0.47
85 | TACATCATCTATAAGGTGCATTTTAGTTCTATTAAA | 8.77 ± 0.44
86 | TATATATTTTATTATTGTACGAATTATTTATTTTAC [XGTACX_site8105] | 8.46 ± 0.36
87 | TTTTTTCTAATATCTTTGCCTTTTTCTTTATTTATT [CACACA_negctrl_site1053] | 8.71 ± 0.5
88 | TATAAAAAGCATAACACACACATGTCAATATAAATA [CACACA_site6648] | 8.7 ± 0.45
89 | TATTGAAACCCACACGAACACACGTATTTCATAAAC [CACACA_site251] | 8.62 ± 0.45

Reference: the supplement of paper PMC11417369
